Data from the supplement of paper PMC8728848.
This is one part of the list.

How the values were obtained:
Test in all cases: glycan array binding signal (z-score within array); higher = stronger binding
Conditions in all cases: glycan notation: IUPAC condensed, linker removed
[1] = target: Fuc(a1-2)Gal
How it was run: (§1)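 The Consortium for Functional Glycomics database supplied 3228 glycan arrays, of which those lacking an available protein sequence were dropped. The binding signal, a within-array Z-score, was averaged across arrays of the same protein sequence and across linkers. Negative scores can be read as non-binding.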

[2] = target: Fuc(a1-2)Gal(b1-3)GalNAc
How it was run: as §1

[3] = target: Fuc(a1-2)Gal(b1-3)GalNAc(a1-3)[Fuc(a1-2)]Gal(b1-4)Glc
How it was run: as §1

[4] = target: Fuc(a1-2)Gal(b1-3)GalNAc(a1-3)[Fuc(a1-2)]Gal(b1-4)GlcNAc
How it was run: as §1

[5] = target: Fuc(a1-2)Gal(b1-3)GalNAc(b1-3)Gal
How it was run: as §1

[6] = target: Fuc(a1-2)Gal(b1-3)GalNAc(b1-3)Gal(a1-4)Gal(b1-4)Glc
How it was run: as §1

[7] = target: Fuc(a1-2)Gal(b1-3)GalNAc(b1-4)[Neu5Ac(a2-3)]Gal(b1-4)Glc
How it was run: as §1

[8] = target: Fuc(a1-2)Gal(b1-3)GlcNAc
How it was run: as §1

[9] = target: Fuc(a1-2)Gal(b1-3)GlcNAc(b1-2)Man(a1-3)[Fuc(a1-2)Gal(b1-3)GlcNAc(b1-2)Man(a1-6)]Man(b1-4)GlcNAc(b1-4)GlcNAc
How it was run: as §1

[10] = target: Fuc(a1-2)Gal(b1-3)GlcNAc(b1-2)Man(a1-3)[Fuc(a1-2)Gal(b1-3)GlcNAc(b1-2)Man(a1-6)]Man(b1-4)GlcNAc(b1-4)[Fuc(a1-6)]GlcNAc
How it was run: as §1

[11] = target: Fuc(a1-2)Gal(b1-3)GlcNAc(b1-3)Gal(b1-4)Glc
How it was run: as §1

[12] = target: Fuc(a1-2)Gal(b1-3)GlcNAc(b1-3)GalNAc
How it was run: as §1

[13] = target: Fuc(a1-2)Gal(b1-3)GlcNAc(b1-3)[Fuc(a1-2)Gal(b1-3)GlcNAc(b1-6)]GalNAc
How it was run: as §1

[14] = target: Fuc(a1-2)Gal(b1-3)GlcNAc(b1-3)[Gal(b1-4)GlcNAc(b1-6)]Gal(b1-4)Glc
How it was run: as §1

[15] = target: Fuc(a1-2)Gal(b1-3)GlcNAc(b1-3)[Neu5Ac(a2-6)Gal(b1-4)GlcNAc(b1-6)]Gal(b1-4)Glc
How it was run: as §1

[16] = target: Fuc(a1-2)Gal(b1-3)GlcNAc6S
How it was run: as §1

[17] = target: Fuc(a1-2)Gal(b1-3)[Fuc(a1-4)]GlcNAc
How it was run: as §1

[18] = target: Fuc(a1-2)Gal(b1-3)[Fuc(a1-4)]GlcNAc(b1-2)Man(a1-3)[Fuc(a1-2)Gal(b1-3)[Fuc(a1-4)]GlcNAc(b1-2)Man(a1-3)]Man(b1-4)GlcNAc(b1-4)GlcNAc
How it was run: as §1

[19] = target: Fuc(a1-2)Gal(b1-3)[Fuc(a1-4)]GlcNAc(b1-2)Man(a1-3)[Fuc(a1-2)Gal(b1-3)[Fuc(a1-4)]GlcNAc(b1-2)Man(a1-6)]Man(b1-4)GlcNAc(b1-4)[Fuc(a1-6)]GlcNAc(b1-4)[Fuc(a1-6)]GlcNAc
How it was run: as §1

[20] = target: Fuc(a1-2)Gal(b1-3)[Fuc(a1-4)]GlcNAc(b1-3)[Fuc(a1-3)[Gal(b1-4)]GlcNAc(b1-6)]Gal(b1-4)Glc
How it was run: as §1

[21] = target: Fuc(a1-2)Gal(b1-3)[Fuc(a1-4)]GlcNAc(b1-3)[Gal(b1-4)GlcNAc(b1-6)]Gal(b1-4)Glc
How it was run: as §1

[22] = target: Fuc(a1-2)Gal(b1-4)Glc
How it was run: as §1

[23] = target: Fuc(a1-2)Gal(b1-4)Glc6S
How it was run: as §1

[24] = target: Fuc(a1-2)Gal(b1-4)GlcNAc
How it was run: as §1

[25] = target: Fuc(a1-2)Gal(b1-4)GlcNAc(b1-2)Man
How it was run: as §1

[26] = target: Fuc(a1-2)Gal(b1-4)GlcNAc(b1-2)Man(a1-3)[Fuc(a1-2)Gal(b1-4)GlcNAc(b1-2)Man(a1-6)]Man(b1-4)GlcNAc(b1-4)GlcNAc
How it was run: as §1

[27] = target: Fuc(a1-2)Gal(b1-4)GlcNAc(b1-2)Man(a1-3)[Fuc(a1-2)Gal(b1-4)GlcNAc(b1-2)Man(a1-6)]Man(b1-4)GlcNAc(b1-4)[Fuc(a1-6)]GlcNAc
How it was run: as §1

[28] = target: Fuc(a1-2)Gal(b1-4)GlcNAc(b1-2)[Fuc(a1-2)Gal(b1-4)GlcNAc(b1-4)]Man(a1-3)[Fuc(a1-2)Gal(b1-4)GlcNAc(b1-2)Man(a1-6)]Man(b1-4)GlcNAc(b1-4)GlcNAc
How it was run: as §1

[29] = target: Fuc(a1-2)Gal(b1-4)GlcNAc(b1-3)Gal(b1-4)GlcNAc
How it was run: as §1

[30] = target: Fuc(a1-2)Gal(b1-4)GlcNAc(b1-3)Gal(b1-4)GlcNAc(b1-2)Man(a1-3)[Fuc(a1-2)Gal(b1-4)GlcNAc(b1-3)Gal(b1-4)GlcNAc(b1-2)Man(a1-6)]Man(b1-4)GlcNAc(b1-4)GlcNAc
How it was run: as §1

[31] = target: Fuc(a1-2)Gal(b1-4)GlcNAc(b1-3)Gal(b1-4)GlcNAc(b1-3)Gal(b1-4)GlcNAc
How it was run: as §1

[32] = target: Fuc(a1-2)Gal(b1-4)GlcNAc(b1-3)GalNAc
How it was run: as §1

[33] = target: Fuc(a1-2)Gal(b1-4)GlcNAc(b1-3)[Fuc(a1-2)Gal(b1-4)GlcNAc(b1-6)]GalNAc
How it was run: as §1

[34] = target: Fuc(a1-2)Gal(b1-4)GlcNAc(b1-3)[Fuc(a1-3)[Gal(b1-4)]GlcNAc(b1-6)]Gal(b1-4)Glc
How it was run: as §1

[35] = target: Fuc(a1-2)Gal(b1-4)GlcNAc(b1-6)GalNAc
How it was run: as §1

[36] = target: Fuc(a1-2)Gal(b1-4)GlcNAc6S
How it was run: as §1

[37] = target: Fuc(a1-2)Gal(b1-4)[Fuc(a1-3)]GlcNAc
How it was run: as §1

[38] = target: Fuc(a1-2)Gal(b1-4)[Fuc(a1-3)]GlcNAc(b1-2)Man(a1-3)[Fuc(a1-2)Gal(b1-4)[Fuc(a1-3)]GlcNAc(b1-2)Man(a1-6)]Man(b1-4)GlcNAc(b1-4)[Fuc(a1-6)]GlcNAc
How it was run: as §1

[39] = target: Fuc(a1-2)Gal(b1-4)[Fuc(a1-3)]GlcNAc(b1-2)[Fuc(a1-2)Gal(b1-4)[Fuc(a1-3)]GlcNAc(b1-4)]Man(a1-3)[Fuc(a1-2)Gal(b1-4)[Fuc(a1-3)]GlcNAc(b1-2)Man(a1-6)]Man(b1-4)GlcNAc(b1-4)GlcNAc
How it was run: as §1

[40] = target: Fuc(a1-2)Gal(b1-4)[Fuc(a1-3)]GlcNAc(b1-3)Gal(b1-4)[Fuc(a1-3)]GlcNAc
How it was run: as §1

[41] = target: Fuc(a1-2)Gal(b1-4)[Fuc(a1-3)]GlcNAc(b1-3)Gal(b1-4)[Fuc(a1-3)]GlcNAc(b1-3)Gal(b1-4)[Fuc(a1-3)]GlcNAc
How it was run: as §1

[42] = target: Fuc(a1-2)Gal(b1-4)[Fuc(a1-3)]GlcNAc(b1-3)GalNAc
How it was run: as §1

[43] = target: Fuc(a1-2)Gal(b1-4)[Fuc(a1-3)]GlcNAc(b1-3)[Neu5Ac(a2-6)Gal(b1-4)GlcNAc(b1-6)]Gal(b1-4)Glc
How it was run: as §1

[44] = target: Fuc(a1-2)Gal3S(b1-4)GlcNAc
How it was run: as §1

[45] = target: Fuc(a1-2)Gal6S(b1-3)GlcNAc
How it was run: as §1

B1: GS7807H-bfa-490-18-490 (Bacteroides fragilis) (protein)
chain: GNLEEMNIDPDNATQTHPKLLLTQICMNAFKRGTDGMYATKKVIQADGESADQYYKWTRGSFGYYDNLRNVQKMGEEAERVNAPVYTALTKFFRAYYFYELTLRFGDIPYSQALKGEKEEIYTPEYDAQEDVFAGILQELREADEILANDASVIDGDIIYNGNSTQWRKLINSFRLKVLMTLSNHTTVGNINIASEFKNIATNSPLMNSLADNGQLVYLDQQGNRYPQFNAQWSGYYMDDTFIQRMRERRDPRLFIFSAQTNKGKTEGKPIDDFSSYEGGDPAAPYSDAIIKVSEGTISPINDRFRTDPIVEPTMLMGYAELQQILAEAVVRGWISGNAQTYYEKGIRASFSFYETHAKDYAGYLNENAVAQYLKEPLVDFTQASGTEEQIERIIMQKYLVTFYQGNWDSFYEQLRTGYPDFRRPAGTEIPKRWMYPQGEYDNNGTNVETAITRQFGAGNDKINQATWWQKKS
glycan array binding signal (z-score) [1]: -0.166 | glycan array binding signal (z-score) [2]: -0.306 | glycan array binding signal (z-score) [3]: -0.741 | glycan array binding signal (z-score) [4]: -0.548 | glycan array binding signal (z-score) [5]: -0.782 | glycan array binding signal (z-score) [6]: -0.187 | glycan array binding signal (z-score) [7]: -0.424 | glycan array binding signal (z-score) [8]: -0.457 | glycan array binding signal (z-score) [9]: 0.846 | glycan array binding signal (z-score) [10]: 0.262 | glycan array binding signal (z-score) [11]: -0.68 | glycan array binding signal (z-score) [12]: -0.079 | glycan array binding signal (z-score) [13]: 0.31 | glycan array binding signal (z-score) [14]: 0.203 | glycan array binding signal (z-score) [15]: -0.326 | glycan array binding signal (z-score) [16]: 0.079 | glycan array binding signal (z-score) [17]: -0.824 | glycan array binding signal (z-score) [18]: -0.077 | glycan array binding signal (z-score) [19]: -0.205 | glycan array binding signal (z-score) [20]: -0.223 | glycan array binding signal (z-score) [21]: -0.829 | glycan array binding signal (z-score) [22]: -0.058 | glycan array binding signal (z-score) [23]: -0.448 | glycan array binding signal (z-score) [24]: -0.024 | glycan array binding signal (z-score) [25]: 0.435 | glycan array binding signal (z-score) [26]: -0.163 | glycan array binding signal (z-score) [27]: 2.33 | glycan array binding signal (z-score) [28]: 0.114 | glycan array binding signal (z-score) [29]: -0.786 | glycan array binding signal (z-score) [30]: 0.121 | glycan array binding signal (z-score) [31]: -0.949 | glycan array binding signal (z-score) [32]: -0.664 | glycan array binding signal (z-score) [33]: -0.134 | glycan array binding signal (z-score) [34]: -0.72 | glycan array binding signal (z-score) [35]: 0.009 | glycan array binding signal (z-score) [36]: -0.3 | glycan array binding signal (z-score) [37]: -0.35 | glycan array binding signal (z-score) [38]: 0.148 | glycan array binding signal (z-score) [39]: -0.455 | glycan array binding signal (z-score) [40]: -0.436 | glycan array binding signal (z-score) [41]: 1.98 | glycan array binding signal (z-score) [42]: 0.672 | glycan array binding signal (z-score) [43]: -0.336 | glycan array binding signal (z-score) [44]: -0.779 | glycan array binding signal (z-score) [45]: -0.343
